This passage reports Kd results from CN114395046A (UNIV NINGXIA MEDICAL; UNIV GUANGDONG MEDICAL, dated 2022).

The target in the assay is T1, PD-1抗原 (PD-1 protein) (UniProt Q15116 in part, limits assumed).
T1 construct: The construct is unknown; also called PD-1蛋白
In words: SPR (Biacore 8K); recombinant nanobody injected as analyte, 100 nM to 0.391 nM in 2-fold dilutions, over PD-1 protein.

T1 sequence (Q15116 25-167 limits assumed): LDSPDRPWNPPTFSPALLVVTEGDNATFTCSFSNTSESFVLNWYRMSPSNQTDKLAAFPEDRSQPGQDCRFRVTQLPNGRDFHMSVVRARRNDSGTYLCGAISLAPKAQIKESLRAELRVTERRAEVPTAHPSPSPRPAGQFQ

B1: 抗PD-1的重组纳米抗体 (anti-PD-1 nanobody SEQ ID No.1 + GGGGS linker + human IgG Fc) (Fc fusion)
chain: QVQLQELGETRCRHGGSLRLSCKVSGYTQRSYCLGWLRQAPGNEREAVAVLQHSGNFRHYADSVQGRFVISQDYTDNTVYLAMNNLKSEDAAMYYCAAALGTCVGLRVSQFNYWGQGTQVTVSSGGGGS[human IgG1 Fc with changes left out]
notes: It was expressed in E. coli Arctic Express from pCZN1 and purified from inclusion bodies on a Ni column; also called 重组抗体; 融合蛋白
For the molecule B1, the Kd worked out at 3.88 nM.
